This is one part of the list. The full chains were built here from the parent and the listed change. Inactive controls read about 0.05.
B1: TEV protease; numbered along this chain (parent)
chain: MGESLFKGPRDYNPISSSICHLTNESDGHTTSLYGIGFGPFIITNKHLFRRNNGTLVVQSLHGVFKVKDTTTLQQHLVDGRDMIIIRMPKDFPPFPQKLKFREPQREERICLVTTNFQTKSMSSMVSDTSCTFPSGDGIFWKHWIQTKDGQCGSPLVSTRDGFIVGIHSASNFTNTNNYFTSVPKNFMELLTNQEAQQWVSGWRLNADSVLWGGHKVFMVKPEEPFQPVKEATQL

Variants of: B1
Experiment: raw area under fraction-flipped curve 0-4 h after induction (AUC4h, not background-subtracted), DNA-recorder readout of cleavage of the substrate (dimensionless); higher = more cleavage of the substrate by the protease variant
Details: temperature: 34 °C; time window: 0-4 h after rhamnose induction
Description: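 In vivo DNA recorder in E. coli TOP10(DE3) ΔrhaA at 34 °C. Each TEVp single-site mutant (parent TEVp 0) is paired with a single-site variant of the 7-mer TEVs (canonical ENLYFQ|S). The substrate sits between flexible linkers in a Bxb1-sfGFP-TEVs-SsrA fusion, so cleavage stabilises Bxb1 and speeds flipping of a recombination array, read by NGS. The value is the raw area under the fraction-flipped curve over 0-4 h after rhamnose induction (AUC4h), with ≥20 reads per time point. It is not background-subtracted; inactive controls average about 0.047.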
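Further: Bxb1 expression induced with 0.2% (w/v) L-rhamnose at OD600 near 0.5, cultures sampled hourly, flipped fraction per protease–substrate barcode pair counted by paired-end Illumina sequencing.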

| Variant | area with substrate ENLYAQS | area with substrate ENLYDQS | area with substrate ENLYEQS | area with substrate ENLYGQS | area with substrate ENLYHQS | area with substrate ENLYIQS | area with substrate ENLYKQS | area with substrate ENLYMQS | area with substrate ENLYNQS | area with substrate ENLYPQS | area with substrate ENLYQQS | area with substrate ENLYRQS | area with substrate ENLYSQS | area with substrate ENLYTQS | area with substrate ENLYVQS | area with substrate ENLYWQS | area with substrate ENLYYQS | area with substrate ENLYCQS | area with substrate ENLYLQS |
| --- | --- | --- | --- | --- | --- | --- | --- | --- | --- | --- | --- | --- | --- | --- | --- | --- | --- | --- | --- |
| MGESLFKGPRDYNPISSSICHLTNESDGHTTSLYGIGFGPFIITNKHLFRRNNDTLVVQSLHGVFKVKDTTTLQQHLVDGRDMIIIRMPKDFPPFPQKLKFREPQREERICLVTTNFQTKSMSSMVSDTSCTFPSGDGIFWKHWIQTKDGQCGSPLVSTRDGFIVGIHSASNFTNTNNYFTSVPKNFMELLTNQEAQQWVSGWRLNADSVLWGGHKVFMVKPEEPFQPVKEATQL [G54D] | 0.0444 | 0.0683 | 0.0618 | 0.0624 | 0.0608 | 0.0868 | 0.0279 | 0.0645 | 0.0606 | 0.0761 | 0.073 | 0.0643 | 0.0672 | 0.0598 | 0.074 | 0.0667 | 0.0587 | – | – |
| MGESLFKGPRDYNPISSSICHLTNESDGHTTSLYGIGFGPFIITNKHLFRRNNGTLVVQSLHGVFKVKDTTTLQQHLVDGRDMIIIRMPKDFPPFPQKLKFREPQREERICLVTTNFQTKCMSSMVSDTSCTFPSGDGIFWKHWIQTKDGQCGSPLVSTRDGFIVGIHSASNFTNTNNYFTSVPKNFMELLTNQEAQQWVSGWRLNADSVLWGGHKVFMVKPEEPFQPVKEATQL [S121C] | 0.0523 | 0.068 | 0.061 | 0.0845 | – | 0.121 | 0.052 | 0.109 | 0.0773 | 0.0971 | 0.0764 | 0.0593 | 0.0665 | 0.0984 | 0.12 | 0.0744 | – | 0.0916 | – |
| MGESLFKGPRDYNPISSSICHLTNESDGHTTSLYGIGFGPFIITNKHLFRRNNGTLVVQSLHGVFKVKDTTTLQQHLKDGRDMIIIRMPKDFPPFPQKLKFREPQREERICLVTTNFQTKSMSSMVSDTSCTFPSGDGIFWKHWIQTKDGQCGSPLVSTRDGFIVGIHSASNFTNTNNYFTSVPKNFMELLTNQEAQQWVSGWRLNADSVLWGGHKVFMVKPEEPFQPVKEATQL [V78K] | 0.101 | – | 0.0581 | 0.0499 | 0.0556 | – | 0.0506 | – | 0.06 | 0.0298 | 0.05 | 0.0438 | 0.0563 | – | 0.0614 | – | – | 0.0474 | – |
| MGESLFKGPRDYNPISSSICHLTNESDGHTTSLYGIGFGPFIITNKHLFRRNNGTLVVQSLHGVFKVKDTTTLQQHLVDGRDMIIIRMPKDFPPFPQKLKFREPQREERICLVTTNFQTKSMSSMVSDTSCTFISGDGIFWKHWIQTKDGQCGSPLVSTRDGFIVGIHSASNFTNTNNYFTSVPKNFMELLTNQEAQQWVSGWRLNADSVLWGGHKVFMVKPEEPFQPVKEATQL [P134I] | 0.0699 | 0.0575 | 0.0629 | 0.0646 | 0.0499 | 0.111 | – | – | 0.0626 | 0.0643 | 0.065 | 0.0638 | 0.0594 | – | – | 0.0454 | 0.0594 | – | 0.0743 |
| MGESLFKGPRDYNPISSSICHLTNESDGHTTSLYGIGFGPKIITNKHLFRRNNGTLVVQSLHGVFKVKDTTTLQQHLVDGRDMIIIRMPKDFPPFPQKLKFREPQREERICLVTTNFQTKSMSSMVSDTSCTFPSGDGIFWKHWIQTKDGQCGSPLVSTRDGFIVGIHSASNFTNTNNYFTSVPKNFMELLTNQEAQQWVSGWRLNADSVLWGGHKVFMVKPEEPFQPVKEATQL [F41K] | 0.0271 | 0.0535 | 0.0556 | – | 0.0631 | 0.0993 | 0.049 | 0.0516 | 0.0535 | – | 0.0571 | 0.053 | 0.0538 | 0.0303 | 0.0543 | 0.0467 | – | – | – |
| MGESLFKGPRDYNPISSSICHLTNESDGHTTSLYGIGFGPFIITNKHLFRRNNGTLVVQSLHGVFKVKDTTTLQQHLVDGRDMIIIRMPKDFPPFPQKLKFREPQREERICLVTTNFQTKSMSSMVSDTSCTFPSGDGIFWKHWIQTKDGQCGSPLVSTRDGFIVGIHSASNFTNTNNYFTSVPQNFMELLTNQEAQQWVSGWRLNADSVLWGGHKVFMVKPEEPFQPVKEATQL [K185Q] | 0.0744 | – | 0.0623 | – | 0.0587 | – | 0.0601 | 0.0955 | 0.0741 | 0.0819 | 0.0774 | – | – | 0.0784 | – | – | – | 0.077 | – |
| MGESLFKGPRDYNPISSSICHLTNESDGHTTSLYGIGFGPFIITNKHLFRRNNGTLVVQSLHGVFKVKDTTTLQQHLVDGRDMIIIRMPKDFPPFPQKLKFREPQREERICLVTTNFQTKSMSSMVSDTSCTFPSGDGIFWKHWIQTKDGQCGSPLVSTRDGFIVGIHSASNFTNTNNYFTSVPKNFMELLTNQEAQQWVSGWRLNADSVLWGGHKVFMVKNEEPFQPVKEATQL [P222N] | 0.0553 | 0.0583 | 0.0605 | 0.0415 | 0.0687 | 0.104 | 0.0815 | 0.0786 | 0.0592 | 0.0639 | – | 0.0655 | 0.0727 | 0.085 | – | – | – | – | – |
| MGESLFKGPRDYNPISSSICHLTNESDGHTTSEYGIGFGPFIITNKHLFRRNNGTLVVQSLHGVFKVKDTTTLQQHLVDGRDMIIIRMPKDFPPFPQKLKFREPQREERICLVTTNFQTKSMSSMVSDTSCTFPSGDGIFWKHWIQTKDGQCGSPLVSTRDGFIVGIHSASNFTNTNNYFTSVPKNFMELLTNQEAQQWVSGWRLNADSVLWGGHKVFMVKPEEPFQPVKEATQL [L33E] | 0.0748 | 0.0664 | 0.0537 | 0.0571 | 0.0655 | 0.0828 | – | 0.066 | 0.0646 | 0.0695 | 0.0648 | 0.0536 | – | 0.0694 | 0.0593 | 0.0549 | – | – | – |
| MGESLFKGPRDYNPISSSICHLTNESDGHTTSLYGIGFGPFIITNKHLFRRNNGTLVVQSLHGVFKVKDTTTLQQHLVDGRDMIIIRMPKDFPPFPQKLKFREPQREERICLVTTNFQTKSMSSMVSDTSCTFPSGDGIFWKHWIQTKDGQCGSPLVSTRDGFIVGIHSASNFTNTNNYFTSVPKNFMRLLTNQEAQQWVSGWRLNADSVLWGGHKVFMVKPEEPFQPVKEATQL [E189R] | 0.0667 | 0.0606 | 0.0848 | 0.0689 | – | 0.106 | 0.0598 | 0.0811 | 0.0671 | 0.0627 | 0.104 | 0.0525 | 0.0754 | 0.088 | 0.107 | – | 0.0627 | 0.0717 | – |

— the supplement of paper PMC12217912
